Results published in PubChem BioAssay AID1477 (National Center for Advancing Translational Sciences (NCATS), 2009).
Fewer than 10 of roughly 230,000 compounds were called active. This list was built around the results that the source calls inconclusive (neither active nor inactive); the mix of calls is not that of the screen. The call rests on the fitted dose curve; in most records, active means well fitted curve in the direction sought with a large enough effect; inconclusive means small, poorly fitted or top-dose-only effect, or effect the other way, or another doubt; inactive means no such curve, though single readings can be large or run the other way. No potency is given beside an inconclusive call; the fits are too rough.

These compounds were tested against Runt-related transcription factor 1 (Homo sapiens) + Core-binding factor subunit beta (Homo sapiens) (UniProt Q01196+Q13951) (assay: qHTS Assay for Compounds Blocking the Interaction Between CBF-beta and RUNX1 for the Treatment of Acute Myeloid Leukemia). Settings: AlphaScreen CBFb-His/RUNX1-biotin binding, biochemical; activity, negative = inhibition: at 59.8 µM (top of the series) unless noted.
UniProt Q01196, sequence (Q01196 whole entry, looked up): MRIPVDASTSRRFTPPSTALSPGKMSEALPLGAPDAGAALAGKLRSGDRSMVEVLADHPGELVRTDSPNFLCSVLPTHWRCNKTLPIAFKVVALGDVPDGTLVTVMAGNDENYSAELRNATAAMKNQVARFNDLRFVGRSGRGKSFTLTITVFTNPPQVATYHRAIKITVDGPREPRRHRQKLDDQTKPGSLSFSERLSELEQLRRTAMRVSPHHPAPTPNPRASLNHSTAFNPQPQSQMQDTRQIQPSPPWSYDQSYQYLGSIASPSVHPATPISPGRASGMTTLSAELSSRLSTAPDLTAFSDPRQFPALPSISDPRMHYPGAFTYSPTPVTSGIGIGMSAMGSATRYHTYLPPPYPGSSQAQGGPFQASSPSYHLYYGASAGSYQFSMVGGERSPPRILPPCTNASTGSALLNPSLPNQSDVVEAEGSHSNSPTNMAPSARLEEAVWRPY
UniProt Q01196, sequence (Q13951 whole entry, looked up): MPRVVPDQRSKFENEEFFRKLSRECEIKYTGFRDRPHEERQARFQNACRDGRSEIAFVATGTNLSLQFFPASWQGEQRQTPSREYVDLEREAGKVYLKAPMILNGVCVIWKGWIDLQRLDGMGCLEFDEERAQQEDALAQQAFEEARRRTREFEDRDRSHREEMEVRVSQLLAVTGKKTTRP
Outline: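 Proteins preincubated together for 20 min at RT before compound addition; 15 min later, nickel and streptavidin beads were added and left 90 min prior to AlphaScreen measurement.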
Wherever activity, negative = inhibition is given: % of control where 0% means no effect.

| SMILES | activity, negative = inhibition | Potency |
| --- | --- | --- |
| NS(=O)(=O)c1ccc(CCNCC(=O)N2CCC(Cc3ccccc3)CC2)cc1 | inactive: 3.96% | – |
| CC(=O)c1ccc(OC(=O)c2cccs2)cc1 | inactive: -0.174% | – |
| O=C(CNC(=O)c1ccc(Cl)cc1)N/N=C/c1cccnc1 | inactive: 7.38% | – |
| CCN(CC)c1ccc(/C=N/NC(=O)c2cnccn2)c(O)c1 | – | inconclusive [inhibitor, partial curve] |
| CC(C)c1nc2oc3c(N4CCN(C)CC4)ncnc3c2c2c1CCC2 | – | inconclusive [activator, single point] |
| Nc1c(C(=O)NCCN2CCOCC2)c2nc3ccccc3nc2n1Cc1ccccc1 | – | inconclusive [activator, full curve] |
| CCOP(=O)(OCC)c1nc(-c2cccc3ccccc23)oc1NCCc1ccc(OC)cc1 | – | inconclusive [activator, partial curve] |
| C=CCOCC1CN2C(CCC(C)C2c2ccc(Br)cc2)C(=O)O1 (stereo not given) | inactive: 9.2% [at 13.1 µM] | – |
| CCC(=O)Nc1cccc(NC(=O)c2ccc3c(c2)OCCO3)c1 | – | inconclusive [activator, full curve, poor fit] |
| C[C@H](NC(=O)Nc1ccccc1F)C(=O)O | – | inconclusive [inhibitor, single point] |
| COc1cc(NS(=O)(=O)c2ccc(Nc3nc(-c4ccccn4)cs3)cc2)nc(OC)n1 | – | inconclusive [inhibitor, single point] |
| Cc1cccc(C)c1OC1(c2ccccc2)OC(=O)c2ccccc21 (stereo not given) | – | inconclusive [activator, single point] |
| Cn1nnnc1Sc1ccc([N+](=O)[O-])cc1Cl | inactive: 7.58% | – |
| Cc1ccccc1C(=O)N/N=C/c1ccccn1 | – | inconclusive [inhibitor, single point] |
| Cc1cccc(C)c1NC(=O)COC(=O)CCC(=O)c1cccs1 | inactive: -4.28% | – |
| O=C(C1=C[C@H](c2csc3ccccc23)C[C@H](OCCCCO)O1)N1CCN(Cc2ccccc2)CC1 | – | inconclusive [inhibitor, single point] |
| Cn1cc(C(c2ccccn2)c2cn(C)c3ccccc23)c2ccccc21 | – | inconclusive [inhibitor, partial curve] |
| CNc1nc(Nc2ccc(C)c(Cl)c2)nc(N)c1[N+](=O)[O-] | – | inconclusive [activator, single point] |
| Nc1nc(Cl)nc2c1ncn2C1OC(CO)C(O)C1F (stereo not given) | – | inconclusive [inhibitor, single point] |
| COc1ccc(/C=C2\SC(=O)N(CCNC(=O)Cc3coc4cc(C)ccc34)C2=O)cc1OC | inactive: 5.1% | – |
| CCCN1c2cccc3cccc(c23)S1(=O)=O | – | inconclusive [activator, partial curve] |
| CC(=O)OCCNc1cc(N2CCN(C)CC2)c2noc3c2c1C(=O)c1ccccc1-3 | – | inconclusive [inhibitor, partial curve] |
| Nc1nc2ccccc2[nH]1 | inactive: -2.02% [at 21.7 µM] | – |
| O=C(c1ccc(CS(=O)(=O)c2ccccc2)o1)N1CCC2(CC1)OCCO2 | – | inconclusive [inhibitor, partial curve] |

| SMILES | activity, negative = inhibition | Potency |
| --- | --- | --- |
| CC(=O)c1ccccc1OCCn1nnc(-c2ccc(C)cc2)n1 | – | inconclusive [activator, single point] |
| CCNC(=S)NCc1ccco1 | inactive: 10.3% | – |
| CC(=O)c1ccc(NC(=O)C(C)n2c3ccccc3c3nc(=O)cc(C)n32)cc1 (stereo not given) | – | inconclusive [activator, single point] |
| O=C(Nc1ccc(S(=O)(=O)N2CCc3ccccc32)cc1)c1ccco1 | inactive: -8.22% | – |
| COc1ccccc1C/C(N)=N/OC(=O)COc1ccccc1C | – | inconclusive [activator, partial curve] |
| CCOc1cc(NC(=S)Nc2ccccc2OC)c(OCC)cc1NC(=O)c1ccccc1C | – | inconclusive [inhibitor, single point] |
| Cc1cccc(N2C(=O)SC(SC(=Nc3ccccc3)Nc3ccccc3)C2=O)c1 (stereo not given) | – | inconclusive [inhibitor, single point] |
| COCCCn1c(N)c(-c2nc3ccccc3n2C)c2nc3ccccc3nc21 | – | inconclusive [activator, partial curve] |
| O=C1CCc2cc(S(=O)(=O)NC(C(=O)N3CCN(c4ccccn4)CC3)c3ccccc3)ccc2N1 (stereo not given) | inactive: 3.62% | – |
| Cc1ccccc1Nc1nc(N)nc(CN(C)Cc2ccccc2Cl)n1 | – | inconclusive [inhibitor, partial curve, poor fit] |
| COc1ccc(C2CC(c3ccccc3)=NN2c2ccc(/C=N/NC(=O)c3ccncc3)cc2)cc1 (stereo not given) | – | inconclusive [activator, single point] |
| O=C(Nc1ccc(Br)cc1)N1CCCCCCC1 | inactive: 4.7% | – |
| Cc1ccc(-n2c(SCC(=O)NCc3ccco3)nc3nc4c(cc3c2=O)COC(C)(C)C4)cc1 | inactive: 10.7% | – |
| O=Cc1ccc(-n2cncn2)cc1 | inactive: 3.19% | – |
| Cc1ccc(NC(=O)c2scc3c2CCCC3)cc1 | – | inconclusive [activator, partial curve] |
| COCCn1c(SCc2nnc(-c3ccccc3)o2)nc2sc3c(c2c1=O)CCC3 | inactive: 0.0504% | – |
| CCOc1ccc(N/C=C/C(=O)c2ccccc2)c([N+](=O)[O-])c1 | – | inconclusive [inhibitor, partial curve] |
| CCCSc1nc(N)nc(-c2cccs2)c1C#N | inactive: 13% | – |
| COc1ccc(/C(N)=N/OC(=O)/C=C/c2ccccc2)cc1 | – | inconclusive [activator, partial curve] |
| C=C(C)C(=O)Nc1cccc(C2=NOC3(C2)C[C@H](C(N)=O)N(C(=O)CC#N)C3)c1 (stereo not given in full) | – | inconclusive [inhibitor, partial curve] |
| CC(=O)Oc1ccc(C(=O)[C@H]2[C@H]3C(=O)N(c4ccc5ccccc5c4)C(=O)[C@H]3[C@@H]3C=CC=NN32)cc1 | – | inconclusive [inhibitor, single point] |
| CCc1ccccc1OCC(=O)Nc1nc(-c2cccnc2)cs1 | – | inconclusive [inhibitor, partial curve] |
| CCN(CC(=O)NC1CCS(=O)(=O)C1)S(=O)(=O)c1ccc2ccccc2c1 (stereo not given) | inactive: 3.29% | – |
| c1ccc(CN=C2NN=C(c3cc4ccccc4o3)CS2)cc1 | – | inconclusive [inhibitor, partial curve] |

| SMILES | activity, negative = inhibition | Potency |
| --- | --- | --- |
| N/C(=N\OC(=O)COc1ccccc1Cl)c1ccc(Cl)cc1 | – | inconclusive [activator, single point] |
| O=C1S/C(=C\C=C\c2ccco2)C(=O)N1c1ccccc1 | – | inconclusive [inhibitor, partial curve] |
| CC(C)Cn1c(-c2cccs2)nc2nc3ccccc3nc21 | – | inconclusive [activator, single point] |
| COc1ccc(NC(=S)N/N=C2\CC(C)(C)Oc3ccc(O)cc32)cc1 | – | inconclusive [inhibitor, single point] |
| CCCCCCCCCCCCCCC[C@@H](O)[C@@H](N)CO | – | inconclusive [activator, partial curve] |
| OC(COc1ccc(CNCc2cccnc2)cc1)CN1CCc2ccccc2C1 (stereo not given) | inactive: -0.777% | – |
| CCOP(=S)(OCC)Oc1cc(C)nc(N(CC)CC)n1 | – | inconclusive [inhibitor, single point] |
| CC(C)Cn1c(N)c(C(=O)NCc2cccs2)c2nc3ccccc3nc21 | – | inconclusive [activator, single point] |
| CC1=NN(C(N)=S)C(=O)C1N=Nc1cccc2ccccc12 (stereo not given) | – | inconclusive [inhibitor, partial curve] |
| CC(C)CC(NC(N)=O)C(=O)Nc1ccc2c(c1)OCO2 (stereo not given) | – | inconclusive [inhibitor, full curve, poor fit] |
| Cc1ccccc1OCc1nc2ccccc2c(=O)n1NC(=O)c1ccco1 | inactive: 0.687% | – |
| CC(C)Oc1cccc(C(=O)C2CCCN(Cc3ccc4nonc4c3)C2)c1 (stereo not given) | inactive: 18.3% | – |
| C/C(=C\C(=O)c1ccc(F)cc1)Nc1ccc(N2CCOCC2)cc1 | – | inconclusive [inhibitor, single point] |
| Cc1ccc(NC(=O)/C=C/c2ccc([N+](=O)[O-])s2)c(C)c1 | inactive: 1.92% | – |
| COc1ccc(-c2cn(-c3ccc(C)cc3)c(=O)n2CC(=O)Nc2ccc(OC)c(OC)c2)cc1 | – | inconclusive [inhibitor, single point] |
| CN(C)[C@H]1C(=O)C(C(=O)NCN2CCCC2)=C(O)[C@]2(O)C(=O)C3=C(O)c4c(O)cccc4[C@@](C)(O)[C@H]3C[C@@H]12 | – | inconclusive [inhibitor, partial curve] |
| Nc1cc(=O)[nH]c(SCC(=O)Nc2nnc(-c3ccccc3)s2)n1 | – | inconclusive [inhibitor, partial curve] |
| O=C(CC1CC2CCC1C2)Nc1nc(-c2ccccn2)cs1 (stereo not given) | – | inconclusive [inhibitor, partial curve] |
| CN1C(C(=O)NCc2ccco2)CC2Cn3c(nc4cc5ccccc5cc43)C21 (stereo not given) | – | inconclusive [activator, partial curve, poor fit] |
| CCOc1cc(NC(=S)NCC2CCCO2)c(OCC)cc1NC(=O)c1ccccc1C (stereo not given) | inactive: -8.74% | – |
| N#CCCCS(=O)(=O)c1nnnn1-c1ccc(Br)cc1 | inactive: 10.2% | – |
| CC(C)N1C(=O)c2ccccc2N(Cc2ccccc2)S1(=O)=O | – | inconclusive [activator, single point] |
